Data reported in the supplement of paper PMC11417369.
The other results are listed elsewhere or left out.

System: PfHDP1 homeodomain (GST-tagged)
Experiment: gcPBM binding intensity (ln(normalized median fluorescence intensity)); higher = stronger DNA binding
How it was run: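 GST-tagged P. falciparum DNA-binding domains produced in E. coli were incubated for 1 h on an Agilent 4 × 180k array of primer-extended double-stranded 36-bp intergenic genomic probes with negative controls. Binding intensity is the highest Masliner-normalised natural-log median intensity across replicate spots of either probe orientation, with bound protein detected by Alexa488 anti-GST antibody at 488 nm.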

Row | Sequence | gcPBM binding intensity (ln)
1 | TATTTTTTCTTAAACACACACATATATATATATAAT [CACACA_site5567] | 6.89
2 | TCTGTGTTTTTGGGTACACACAAATAGCTTGTATAT [CACACA_site4002] | 6.77
3 | TGAAAATTAATAAAAAGTACATAGTCAGATTTGTGA [XGTACX_site2450] | 6.31
4 | TTCCTTAATCAATATTGTACTTTTTATAAATTTAGT [XGTACX_site3678] | 6.86
5 | TATATGTGACATGAATGTACCCAAATTATATAAGAA [XGTACX_site3937] | 6.4
6 | ATTTAATATATTTATTGTACATATAAAATAAAAGAA [XGTACX_site2413] | 6.63
7 | TATTCTTACACGTTTGCACACTAAAATATATATATA [CACACA_site435] | 9.97
8 | CATAGGAACATAAGTTGTACGCTATACATACAACAT [XGTACX_site1054] | 6.22
9 | TCTCCTTGTTCCTTTTTTTTAAAAAAAAACATTAAA [CACACA_negctrl_site679] | 7.2
10 | ATAAATCCATGGGTAGTGCGCATTTTTTTTTTTTTT [GTGCAC_site9732] | 6.82
11 | TTAGTGTATTAATTCTCACACACTAAGAAAAAAAAA [CACACA_site3878] | 6.31
12 | ATAAAATGTATATGAATGCACTTGAAGTTTTTTTTT | 7.25
13 | TATATATATTTATACACACACATATATTTATATATT [CACACA_site484] | 6.95
14 | ATTCACTGGTATGCATGAAAAAAAATATTATTATAA [CACACA_negctrl_site702] | 6.49
15 | ATTTTGATAACCGTACGTACATATATATATATATAT [XGTACX_site6605] | 9.19
16 | TGAATACTTATGTTCGCACACATGCAAATTAAAAAA [CACACA_site4048] | 7.27
17 | TTATGTGTATACTAAGAACACACAAGTTACTTGGTG [CACACA_site8467] | 6.36
18 | ACATGGTGATAATACTGTACAAAAATAAATAAATAC [XGTACX_site897] | 7
19 | TTGTTTGGTTATAATTGTACGCATGTAATTACATAT [XGTACX_site4972] | 7.09
20 | TTATTTTTCTAAAAAGCATGCAAATAAAGATATGAA [TGCATGCA_site1032] | 6.92
21 | ACATTCAATAAACGTCGTACACTTTCCTTTTTATGA [XGTACX_site3274] | 6.84
22 | AAAAAAACGATCGATCGTACTTATATTTACACATTC [XGTACX_site2883] | 6.37
23 | ATATATATTTTATTATGTACTTACTTCTTTTCTTAA [XGTACX_site6163] | 6.53

Row | Sequence | gcPBM binding intensity (ln)
24 | TTTTATAGTCTTATGGGTACAAAATATTAACCCACG [XGTACX_site1131] | 6.1
25 | CTAAACAAAAAATAATGTACACATACATAAAAAATA [XGTACX_site1808] | 6.12
26 | AACACATACAAACACACACACAAAAAAAAAAAAAAA [CACACA_site393] | 6.92
27 | ATTATATATGTATGGTGTACTAAGAATATTTTTTTA [XGTACX_site1950] | 6.36
28 | CCCGAACAAACAAATAAACACACAAAAAAAAATATA [CACACA_site8540] | 6.78
29 | TATTGAAAAAATAAAAGTACAAACTCTTATAATATG [XGTACX_site8196] | 6.05
30 | ATTCAATATAAATACACACACACTTTTAATAATTAA [CACACA_site5963] | 6.88
31 | AAAAGAATGAAACATAATAAATTACATTAAAATAAT [CACACA_negctrl_site897] | 6.26
32 | TAATTATCACATTGCACACACATTTCCTTTTACATT [CACACA_site3443] | 9.61
33 | GGCATACACAGACACACACACACACCCACATATATA [CACACA_site591] | 7.38
34 | AATAAATAAATAAGTACACACATATATATATATATA [CACACA_site284] | 9.32
35 | ATTTTTTTATTTTGTGCACACACATAAAAATATATA [CACACA_site762] | 11.4
36 | TCTATTTTTCTAATTTGTACATAGCTTTGAGTTAGT [XGTACX_site8977] | 6.79
37 | AACTTATTAAGCCCTCCACATTTCTCTACTACAACT [CACACA_negctrl_site1552] | 6.52
38 | AACTTCTTTTTTATAACACACAAAATATATATACAA [CACACA_site282] | 6.85
39 | AGATAAAATATATACACACACATAAATACGTACAAA [CACACA_site1086] | 7.07
40 | TACATTTTTATTTTTACACACATATTTATTTATATA [CACACA_site6609] | 7.06
41 | TATGATGATGAATAACGTACAAAAAAATTAATCACC [XGTACX_site6794] | 6.87
42 | ATTCATTTTAATATGGGTACATAAAAATAAAAAGAA [XGTACX_site2801] | 6.68
43 | AATATTTAATTCAACACACATACATATTTATTAAAA [CACACA_site2342] | 6.5
44 | GCATAAATCAGACACACACACATATATAAATATGTA [CACACA_site7187] | 6.58
45 | TAATATGAAAAGTGTACACACGCACAGACAAAAAAA [CACACA_site5594] | 7.66
46 | TGTTTATTTTTTTTATGTACTTATTTTTTATTGCAT [XGTACX_site719] | 7.02

Row | Sequence | gcPBM binding intensity (ln)
47 | ATAAATATATGGTTTCATTATATTAAATTCAATTTA [CACACA_negctrl_site213] | 5.83
48 | GATTTTCATATTTTTTGTACTTACATTTTTCTATAC [XGTACX_site6002] | 6.59
49 | ATAAAATCTTAATCAACAAACAAACAAAAAAAAAAT [CACACA_negctrl_site1161] | 6.66
50 | TATGTGATATATTTATCACACATTATATATATATAT [CACACA_site5103] | 8.89
51 | ATGGGGAATAATGAATGTACACAAATAAAAAGTTGG [XGTACX_site4015] | 7.28
52 | ATCTAAACCTTTTGAGCACACATATATATATATATA [CACACA_site8526] | 9.33
53 | AATCATTTATGGAAAGCATGCTAAATTAGAGTATAC [TGCATGCA_site172] | 6.99
54 | TAATATCATTTAGACACACACTCTTACAATCTGTAA [CACACA_site2590] | 6.43
55 | TAATTTTTTTAAAACACACAAATATGTAAATATGTA [CACACA_site7769] | 6.15
56 | TAAAAATAAAAATAACGTACATACATACTTATATAT [XGTACX_site3745] | 6.01
57 | AGTATAGTTATAAATTGTACATATTATTTATTTTAT [XGTACX_site949] | 6.35
58 | TAAGTCGCCAAAAGGTGTACACATAATGCATTATCA [XGTACX_site8852] | 7.6
59 | TTTTTTTTTTGTAATTGTACTTTTTTAATACTTCTA [XGTACX_site4195] | 6.3
60 | TATATATATATATTCACACATAAATATATGCACCCA [CACACA_site4263] | 11
61 | TATACATATATATACACACACATATATATATATATA [CACACA_site4] | 9.46
62 | ATTTTTGTGACTAAGACATGCATAAGAGTAAAGAAA [TGCATGCA_site619] | 7.44
63 | ACATATATTATATAACGTACATAACACTATTTCCTT [XGTACX_site6938] | 6.71
64 | AATAAATATAAATACACACCCATATATATATATATA [CACACA_site5436] | 9.42
65 | ACCAATAAATATTTGGTGCATACATATATATATATA | 10.5
66 | TTAAAAAAAAAAAAAAGTACACACTTATAAAATATT [XGTACX_site1630] | 6.31
67 | TCATACCTACATAAAAAAAGGGAAACAAAATGTCAT [XGTACX_negctrl_site34] | 6.12
68 | TATTATAATGACTATAGTACATAATATTATTTATAT [XGTACX_site1977] | 6.54
69 | ATAGAACTGAATAAATCTATAAATAAATATATATAT [GTGCAC_negctrl_site604] | 7.87

Row | Sequence | gcPBM binding intensity (ln)
70 | CTCCACAAACAAATCGCACACCCAACCCAACATATA [CACACA_site2650] | 6.7
71 | ACCTACACAAGCATTAAACACACAAAAGGGATACTT [CACACA_site8273] | 6.89
72 | ACCTAATTTTTATATTGTACATAATATAATATATAT [XGTACX_site1715] | 6.61
73 | ACAAGAACAGAACGTACACACACATATATATATATA [CACACA_site9143] | 9.18
74 | AAATATTACATACACGCACACATTAATATATTTAAA [CACACA_site2603] | 7.25
75 | ACATATACATTTATATGTACTCATTTATCTTATGTA [XGTACX_site6594] | 6.46
76 | TTTTTTAAAACTTCAAAAAGAGCACTTGAATTTTTT [GTGCAC_negctrl_site455] | 5.95
77 | AACTAAATTTATAATTGTACATTAAAATATGTATTA [XGTACX_site479] | 6.25
78 | TACATAAACATTTATACACACATTAGATATACATAT [CACACA_site6329] | 6.77
79 | CTAAATAAAGTTAACACACACATAATATTTATATGT [CACACA_site6368] | 6.33
80 | TCAAAGAGTAGAAAGGTGCTTATGAACGAGATAATT | 6.19
81 | TATTATAATTTTATATGTACACATATATAAATATAT [XGTACX_site4054] | 6.29
82 | TTTTACATATATATATGTACGAAAATGAAAAGGTCA [XGTACX_site5576] | 7.22
83 | AAAGTTACATTCGACACACACATAACAACTAAATAA [CACACA_site3419] | 6.66
84 | TTTATTTATTAATACACACACACACCCCCACAAAAT [CACACA_site240] | 8.23
85 | TATCATTTGGTCTTTTACTTTTTCTGTTTTTTTTTT [CACACA_negctrl_site976] | 6.68
86 | TTTTTTACTATATCAATTACAAAACAAAAAAAAAAA [GTGCAC_negctrl_site683] | 6.26
87 | TGATAAAATATTAAATTATTTCTTTATTTAAAGATT [CACACA_negctrl_site370] | 5.71
88 | AAATATGTTTCAAAAAGTACATTTCTATCTTTTTTT [XGTACX_site7178] | 6.53
89 | AATATGCCTCCCCAAAAAAAATATATATATATTTAT [GTGCAC_negctrl_site716] | 7.73
